This is one part of the list.

One assay concerns HSkMC (human skeletal muscle cells). The assay is described as follows: cytotoxicity call (relative viability < 0.9). The following applies: 10 µM.
Turning to `C[C@@H]1CN([C@H](C)CO)C(=O)Cc2cc(NS(C)(=O)=O)ccc2O[C@@H]1CN(C)S(=O)(=O)c1cn(C)cn1`, the cytotoxicity call was “inactive”.
Same read-out and setting: in the case of `C[C@H](CO)N1C[C@H](C)[C@@H](CN(C)C(=O)Nc2ccc(C(F)(F)F)cc2)Oc2ccc(NS(=O)(=O)c3ccc(Cl)cc3)cc2CC1=O` it was “inactive”; in that of `COc1ccc(CN(C)C[C@H]2Oc3ccc(NC(=O)Nc4ccc(C(F)(F)F)cc4)cc3C(=O)N([C@H](C)CO)C[C@H]2C)cc1`, “inactive”; in that of `Cc1noc(C)c1NC(=O)N(C)C[C@H]1Oc2ccc(NC(=O)C3CC3)cc2C(=O)N([C@@H](C)CO)C[C@@H]1C`, “inactive”.
On the same count and under the same terms, to `O=c1[nH]nc(N2CCOCC2)c(=O)[nH]1` belongs “inactive”.
Regarding `CCC1(C(=O)O)CCNCC1`, the cytotoxicity call is “inactive”.
Still for that read-out and setting: in the case of `CCCNC(=O)Nc1ccc2c(c1)OC[C@H](C)N(Cc1ccc(-c3ccccn3)cc1)C[C@@H](C)[C@@H](OC)CN(C)C2=O` it was “inactive”; in that of `COc1ccc(NC(=O)N(C)C[C@H]2Oc3c(NC(=O)Nc4cccc5ccccc45)cccc3C(=O)N([C@@H](C)CO)C[C@@H]2C)cc1`, “active”.
Same read-out and setting: in the case of `C[C@H]1CN([C@@H](C)CO)S(=O)(=O)c2ccc(Br)cc2O[C@H]1CN(C)C(=O)c1cnccn1` it was “inactive”.

The test system of another assay is HepG2. The assay is described as follows: cytotoxicity call (relative viability < 0.9). Conditions: 10 µM.
`COc1ccnc(CS(=O)c2nc3cc(OC(F)F)ccc3[nH]2)c1OC` (centres undefined): the cytotoxicity call was “inactive”.
Same read-out and setting: in the case of `c1ccc2nc(-c3cn[nH]c3)ccc2c1` it was “inactive”; in that of `C[C@H]1CN([C@@H](C)CO)C(=O)Cc2cc(NS(=O)(=O)c3cn(C)cn3)ccc2O[C@@H]1CN(C)S(=O)(=O)c1ccc(Cl)cc1`, “inactive”; in that of `COCC#Cc1cnc2c(c1)C(=O)N([C@H](C)CO)C[C@H](C)[C@H](CN(C)C(=O)Nc1ccc(OC)cc1)O2`, “inactive”.
As to `COc1ccc(S(=O)(=O)N(C)C[C@@H]2Oc3c(NC(=O)c4ccncc4)cccc3C(=O)N([C@H](C)CO)C[C@@H]2C)cc1`, the cytotoxicity call was “inactive”.
Still for that read-out and setting: to `NC(=O)N1CCC(CC(=O)N2CCC([C@H]3c4ncc(Br)cc4CCc4cc(Cl)cc(Br)c43)CC2)CC1` belongs “inactive”.
As to `O=C(C[C@@H]1C[C@@H]2c3cc(NC(=O)Nc4ccccc4F)ccc3O[C@@H]2[C@H](CO)O1)NCc1ccc(Oc2ccccc2)cc1`, the cytotoxicity call is “inactive”.
The same measure, in the same setting: in the case of `COc1ccc(NC(=O)Nc2ccc3c(c2)C(=O)N([C@@H](C)CO)C[C@@H](C)[C@@H](CN(C)S(=O)(=O)c2ccc(Cl)cc2)OCCCC[C@@H](C)O3)cc1` it was “inactive”; in that of `O=C(C[C@@H]1CC[C@@H]2[C@H](COC[C@@H](O)CN2S(=O)(=O)c2ccccc2)O1)NCCN1CCCCC1`, “inactive”; in that of `CS(=O)(=O)N1[C@@H]2Cn3c(cccc3=O)[C@H]1[C@@H](C(=O)NCc1ccccc1)[C@@H]2CO`, “inactive”.
For `Cc1noc(C)c1S(=O)(=O)N(C)C[C@@H]1Oc2ccc(NC(=O)C3CCCCC3)cc2CC(=O)N([C@H](C)CO)C[C@H]1C`, the cytotoxicity call was “inactive”.
Consider `CCCNC(=O)N(C)C[C@@H]1Oc2cc(C#Cc3ccccn3)ccc2S(=O)(=O)N([C@@H](C)CO)C[C@H]1C`, for which the cytotoxicity call was “inactive”.
Same read-out and setting: to `C[C@H](CO)N1C[C@H](C)[C@@H](CN(C)C(=O)NC2CCCCC2)OCCCC[C@H](C)Oc2ccc(NC(=O)C3CCCCC3)cc2C1=O` belongs “inactive”; to `C[C@H](CO)N1C[C@H](C)[C@H](CN(C)S(=O)(=O)c2ccccc2)Oc2ccc(NC(=O)CCC(F)(F)F)cc2CC1=O`, “inactive”; to `COc1cc(N)ccc1N1CCCS1(=O)=O`, “inactive”.
`N=C(N)NCc1cn(CC(=O)N2CCN(c3ccccc3)CC2)nn1`: the cytotoxicity call is “inactive”.
Regarding `Cc1sc2ncnc(N3CCC(Cn4cc(C(C)(C)N)nn4)CC3)c2c1C`, the cytotoxicity call was “inactive”.
Still for that read-out and setting: in the case of `O=C1NC(=O)C2(CCCCC2)N1` it was “inactive”; in that of `C[C@@H]1CCCCO[C@@H](CN(C)C(=O)Nc2cccc3ccccc23)[C@H](C)CN([C@H](C)CO)C(=O)c2cc(NS(=O)(=O)c3ccc(Cl)cc3)ccc2O1`, “active”.
On to `C[C@@H]1CCCCO[C@@H](CN(C)C(=O)CCCN(C)C)[C@H](C)CN([C@H](C)CO)C(=O)c2cc(NC(=O)Nc3ccc(C(F)(F)F)cc3)ccc2O1`, for which the cytotoxicity call is “inactive”.
On the same count and under the same terms, to `C[C@H]1CN([C@@H](C)CO)C(=O)c2cc(NC(=O)CCCN(C)C)ccc2O[C@@H]1CN(C)Cc1ccc(Oc2ccccc2)cc1` belongs “active”; to `C[C@H](CO)N1C[C@H](C)[C@H](CN(C)S(=O)(=O)c2ccc(Oc3ccccc3)cc2)OCc2cnnn2CCCC1=O`, “inactive”; to `COc1cccc(C(=O)c2ccccc2)c1`, “inactive”.
For the compound `C[C@H](CO)N1C[C@H](C)[C@H](CN(C)Cc2ccc3c(c2)OCO3)Oc2ccc(NS(C)(=O)=O)cc2CC1=O`, the cytotoxicity call was “inactive”.
In the case of `C[C@@H]1CCCCO[C@@H](CN(C)Cc2ccncc2)[C@H](C)CN([C@@H](C)CO)C(=O)c2cc(NC(=O)Nc3ccccc3)ccc2O1`, the cytotoxicity call is “inactive”.
As for `Cc1ccc(S(=O)(=O)Nc2ccc3c(c2)C(=O)N([C@H](C)CO)C[C@H](C)[C@H](CN(C)C(=O)Nc2cccc4ccccc24)OCCCC[C@@H](C)O3)cc1`, the cytotoxicity call is “inactive”.
With `CC1OC(Oc2c(-c3ccc(O)c(O)c3)oc3cc(O)cc(O)c3c2=O)C(O)C(O)C1O` (centres undefined), the cytotoxicity call was “inactive”.
As for `COc1ccccc1CNC(=O)C[C@H]1CC[C@@H]2[C@H](COC[C@@H](O)CN2C(=O)Nc2ccc(Cl)cc2)O1`, the cytotoxicity call is “inactive”.
Same read-out and setting: to `C[C@@H]1CN([C@H](C)CO)C(=O)Cc2cc(NC(=O)Nc3cccc4ccccc34)ccc2O[C@H]1CN(C)Cc1ccccc1` belongs “inactive”; to `C[C@@H]1CN([C@@H](C)CO)C(=O)c2cc(NC(=O)Nc3ccc4c(c3)OCO4)ccc2O[C@@H](C)CCCCO[C@@H]1CN(C)CC1CCCCC1`, “inactive”.
On the same count and under the same terms, in the case of `Cc1noc(C)c1S(=O)(=O)N(C)C[C@H]1OCCCC[C@H](C)Oc2ccc(NC(=O)Nc3ccccc3)cc2C(=O)N([C@@H](C)CO)C[C@@H]1C` it was “inactive”; in that of `C[C@@H]1CN([C@H](C)CO)C(=O)Cc2cc(NS(C)(=O)=O)ccc2O[C@@H]1CN(C)S(=O)(=O)c1cn(C)cn1`, “inactive”.
Same read-out and setting: in the case of `C[C@H](CO)N1C[C@H](C)[C@@H](CN(C)C(=O)Nc2ccc(C(F)(F)F)cc2)Oc2ccc(NS(=O)(=O)c3ccc(Cl)cc3)cc2CC1=O` it was “inactive”; in that of `COc1ccc(CN(C)C[C@H]2Oc3ccc(NC(=O)Nc4ccc(C(F)(F)F)cc4)cc3C(=O)N([C@H](C)CO)C[C@H]2C)cc1`, “active”; in that of `Cc1noc(C)c1NC(=O)N(C)C[C@H]1Oc2ccc(NC(=O)C3CC3)cc2C(=O)N([C@@H](C)CO)C[C@@H]1C`, “inactive”.
In the case of `O=c1[nH]nc(N2CCOCC2)c(=O)[nH]1`, the cytotoxicity call was “inactive”.
`CCC1(C(=O)O)CCNCC1`: the cytotoxicity call is “inactive”.
The same measure, in the same setting: in the case of `CCCNC(=O)Nc1ccc2c(c1)OC[C@H](C)N(Cc1ccc(-c3ccccn3)cc1)C[C@@H](C)[C@@H](OC)CN(C)C2=O` it was “inactive”; in that of `COc1ccc(NC(=O)N(C)C[C@H]2Oc3c(NC(=O)Nc4cccc5ccccc45)cccc3C(=O)N([C@@H](C)CO)C[C@@H]2C)cc1`, “inactive”.
With `C[C@H]1CN([C@@H](C)CO)S(=O)(=O)c2ccc(Br)cc2O[C@H]1CN(C)C(=O)c1cnccn1`, the cytotoxicity call is “inactive”.

Values taken from the antibiotic and cytotoxicity screens of Wong et al. (2023).
